± gives the standard deviation of the averaged measurements. Laboratory Escherichia coli strains with one amino-acid change in an essential protein, pooled on minimal glucose agar with carbenicillin or gentamicin at twice the control MIC (plus kanamycin and chloramphenicol for the plasmids), 48 h. Fold change of barcode share against drug-free plates; higher = less susceptible. Active = above 20 in both replicates (the paper's putatively resistant). '<' = one read or none on drug, '>' = one read or none on a drug-free plate. Shares are relative, so most strains fall below 1 when a few take over. Listed are strains with at least 15 reads on both drug-free plates, and hits; most hits rest on fewer reference reads. Replicate rank correlation about 0.5. Edits are read from barcodes.
B1: ffh M105A (protein)
chain: MFDNLTDRLSRTLRNISGRGRLTEDNVKDTLREVRMALLEADVALPVVREFINRVKEKAVGHEVNKSLTPGQEFVKIVRNELVAAMGEENQTLNLAAQPPAVVLAAGLQGAGKTTSVGKLGKFLREKHKKKVLVVSADVYRPAAIKQLETLAEQVGVDFFPSDVGQKPVDIVNAALKEAKLKFYDVLLVDTAGRLHVDEAMMDEIKQVHASINPVETLFVVDAMTGQDAANTAKAFNEALPLTGVVLTKVDGDARGGAALSIRHITGKPIKFLGVGEKTEALEPFHPDRIASRILGMGDVLSLIEDIESKVDRAQAEKLASKLKKGDGFDLNDFLEQLRQMKNMGGMASLMGKLPGMGQIPDNVKSQMDDKVLVRMEAIINSMTMKERAKPEIIKGSRKRRIAAGCGMQVQDVNRLLKQFDDMQRMMKKMKKGGMAKMMRSMKGMMPPGFPGR
B2: ffh V48W (protein)
chain: MFDNLTDRLSRTLRNISGRGRLTEDNVKDTLREVRMALLEADVALPVWREFINRVKEKAVGHEVNKSLTPGQEFVKIVRNELVAAMGEENQTLNLAAQPPAVVLMAGLQGAGKTTSVGKLGKFLREKHKKKVLVVSADVYRPAAIKQLETLAEQVGVDFFPSDVGQKPVDIVNAALKEAKLKFYDVLLVDTAGRLHVDEAMMDEIKQVHASINPVETLFVVDAMTGQDAANTAKAFNEALPLTGVVLTKVDGDARGGAALSIRHITGKPIKFLGVGEKTEALEPFHPDRIASRILGMGDVLSLIEDIESKVDRAQAEKLASKLKKGDGFDLNDFLEQLRQMKNMGGMASLMGKLPGMGQIPDNVKSQMDDKVLVRMEAIINSMTMKERAKPEIIKGSRKRRIAAGCGMQVQDVNRLLKQFDDMQRMMKKMKKGGMAKMMRSMKGMMPPGFPGR
B3: ffh M105Q (protein)
chain: MFDNLTDRLSRTLRNISGRGRLTEDNVKDTLREVRMALLEADVALPVVREFINRVKEKAVGHEVNKSLTPGQEFVKIVRNELVAAMGEENQTLNLAAQPPAVVLQAGLQGAGKTTSVGKLGKFLREKHKKKVLVVSADVYRPAAIKQLETLAEQVGVDFFPSDVGQKPVDIVNAALKEAKLKFYDVLLVDTAGRLHVDEAMMDEIKQVHASINPVETLFVVDAMTGQDAANTAKAFNEALPLTGVVLTKVDGDARGGAALSIRHITGKPIKFLGVGEKTEALEPFHPDRIASRILGMGDVLSLIEDIESKVDRAQAEKLASKLKKGDGFDLNDFLEQLRQMKNMGGMASLMGKLPGMGQIPDNVKSQMDDKVLVRMEAIINSMTMKERAKPEIIKGSRKRRIAAGCGMQVQDVNRLLKQFDDMQRMMKKMKKGGMAKMMRSMKGMMPPGFPGR
B4: ffh V48Q (protein)
chain: MFDNLTDRLSRTLRNISGRGRLTEDNVKDTLREVRMALLEADVALPVQREFINRVKEKAVGHEVNKSLTPGQEFVKIVRNELVAAMGEENQTLNLAAQPPAVVLMAGLQGAGKTTSVGKLGKFLREKHKKKVLVVSADVYRPAAIKQLETLAEQVGVDFFPSDVGQKPVDIVNAALKEAKLKFYDVLLVDTAGRLHVDEAMMDEIKQVHASINPVETLFVVDAMTGQDAANTAKAFNEALPLTGVVLTKVDGDARGGAALSIRHITGKPIKFLGVGEKTEALEPFHPDRIASRILGMGDVLSLIEDIESKVDRAQAEKLASKLKKGDGFDLNDFLEQLRQMKNMGGMASLMGKLPGMGQIPDNVKSQMDDKVLVRMEAIINSMTMKERAKPEIIKGSRKRRIAAGCGMQVQDVNRLLKQFDDMQRMMKKMKKGGMAKMMRSMKGMMPPGFPGR
B5: ffh M105W (protein)
chain: MFDNLTDRLSRTLRNISGRGRLTEDNVKDTLREVRMALLEADVALPVVREFINRVKEKAVGHEVNKSLTPGQEFVKIVRNELVAAMGEENQTLNLAAQPPAVVLWAGLQGAGKTTSVGKLGKFLREKHKKKVLVVSADVYRPAAIKQLETLAEQVGVDFFPSDVGQKPVDIVNAALKEAKLKFYDVLLVDTAGRLHVDEAMMDEIKQVHASINPVETLFVVDAMTGQDAANTAKAFNEALPLTGVVLTKVDGDARGGAALSIRHITGKPIKFLGVGEKTEALEPFHPDRIASRILGMGDVLSLIEDIESKVDRAQAEKLASKLKKGDGFDLNDFLEQLRQMKNMGGMASLMGKLPGMGQIPDNVKSQMDDKVLVRMEAIINSMTMKERAKPEIIKGSRKRRIAAGCGMQVQDVNRLLKQFDDMQRMMKKMKKGGMAKMMRSMKGMMPPGFPGR
B6: ffh L188A (protein)
chain: MFDNLTDRLSRTLRNISGRGRLTEDNVKDTLREVRMALLEADVALPVVREFINRVKEKAVGHEVNKSLTPGQEFVKIVRNELVAAMGEENQTLNLAAQPPAVVLMAGLQGAGKTTSVGKLGKFLREKHKKKVLVVSADVYRPAAIKQLETLAEQVGVDFFPSDVGQKPVDIVNAALKEAKLKFYDVLAVDTAGRLHVDEAMMDEIKQVHASINPVETLFVVDAMTGQDAANTAKAFNEALPLTGVVLTKVDGDARGGAALSIRHITGKPIKFLGVGEKTEALEPFHPDRIASRILGMGDVLSLIEDIESKVDRAQAEKLASKLKKGDGFDLNDFLEQLRQMKNMGGMASLMGKLPGMGQIPDNVKSQMDDKVLVRMEAIINSMTMKERAKPEIIKGSRKRRIAAGCGMQVQDVNRLLKQFDDMQRMMKKMKKGGMAKMMRSMKGMMPPGFPGR

target: Escherichia coli (laboratory strain); assay: barcode share on antibiotic plates over drug-free plates; higher = less susceptible; conditions: antibiotic: carbenicillin; 2× MIC (3.1 µg/mL)
Protocol: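 A pool of E. coli strains, each edited to carry one amino-acid change in an essential protein, was grown for 48 h on minimal glucose agar with or without antibiotic; strain barcodes were sequenced; mean of two replicates.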

Row | Protein | fold change of barcode share
1 | B1 | 0.375 ± 0.0078
2 | B2 | 0.447 ± 0.14
3 | B3 | 0.364 ± 0.018
4 | B4 | 0.58042 ± 0.00041
5 | B5 | 0.35 ± 0.063
6 | B6 | 0.309 ± 0.081

same assay, conditions: antibiotic: gentamicin; 2× MIC (MIC 0.45 µg/mL)

Row | Protein | fold change of barcode share
7 | B1 | 0.00416 ± 0.0026
8 | B2 | 0.0226 ± 0.0009
9 | B3 | 0.00726 ± 0.0056
10 | B4 | 0.0139 ± 0.0049
11 | B5 | 0.00374 ± 0.0041
12 | B6 | < 0.00317
